According to the supplement of paper PMC11417369:
± gives the standard deviation of the averaged measurements. The list shows a part of the results.

Tested on: PfAP2-I AP2 domain 3 (GST-tagged)
Assay: gcPBM binding intensity (ln(normalized median fluorescence intensity)); higher = stronger DNA binding
Summary of the method: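 In this array assay, P. falciparum DNA-binding domains with a GST tag, expressed in E. coli, were applied for 1 h to primer-extended double-stranded 36-bp intergenic genomic probes and negative controls on an Agilent 4 × 180k array. Bound protein was visualised with Alexa488 anti-GST antibody at 488 nm. Binding intensity is the highest Masliner-normalised natural-log median intensity across replicate spots of either probe orientation.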

| Sequence | gcPBM binding intensity (ln) |
| --- | --- |
| TTTCGATTAAAAATTGTACAATATAAGGAGCACACA [GTGCAC_negctrl_site476] | 8.51 ± 0.32 |
| ACTGTAACAATCATGGGTACAAATAAAATAATATCT [XGTACX_site99] | 7.98 ± 0.57 |
| ATGAAAATTATAAAGTGTACATATAGAAACATTTAC [XGTACX_site8047] | 7.91 ± 0.56 |
| AACCACAGACATATAACACACATATACAATATATAT [CACACA_site5142] | 8.14 ± 0.39 |
| CTTTTTTTGACCTTAGTGCAAATAACTATATATTAT | 10.5 ± 0.41 |
| TAAAAAAAAAAATGAACATGCAACAATTGTGATGAA [TGCATGCA_site332] | 7.55 ± 0.83 |
| TTTTGTCTTATATGTTGTACAACGTAAACAAAAAAA [XGTACX_site4412] | 8.07 ± 0.4 |
| AAAAGAATATATAATTGTACTTAAAATATAATTAAG [XGTACX_site4484] | 7.61 ± 0.27 |
| TATTTTAACTTCTCATGTACATATATTATGTCTATA [XGTACX_site249] | 8.06 ± 0.46 |
| CTTTGTAGTATATTAACACACAACTATTTATAATAT [CACACA_site3934] | 7.7 ± 0.5 |
| TATCATAAACTTCCTTACTATACTTTTCTTATTCAT [CACACA_negctrl_site1341] | 7.91 ± 0.45 |
| TAAAAAGGAAAACACACACACACATATATATATATA [CACACA_site3588] | 9.49 ± 0.34 |
| ATTTTTAAGCATATCAAAAAAAAAAAAAAAATTAAT [CACACA_negctrl_site980] | 7.49 ± 0.45 |
| TTACTAAAAATTATTAATAAATAATAATTATAAATT [GTGCAC_negctrl_site310] | 7.26 ± 0.39 |
| TTATTATTAAGACACACACACAAAAAAAAAAAAAAA [CACACA_site6805] | 8.21 ± 0.54 |
| TTTCCAATTAGTTTTGCATGTTGAAAAAATGTTGGA [TGCATGCA_site1035] | 7.71 ± 0.52 |
| TAACATATCTTTAATACACACTTAAAAAAGTACTTA [CACACA_site4532] | 7.82 ± 0.35 |
| GGAAACACAATATATACACACATATATATATATATA [CACACA_site235] | 9.09 ± 0.58 |
| ACACTTAAATATTGTTGTACAAAATGATAAAATGTA [XGTACX_site4588] | 7.87 ± 0.42 |

| Sequence | gcPBM binding intensity (ln) |
| --- | --- |
| TTATATAACCCTCATGCATGCTAAGAAAAAAAAAAC [TGCATGCA_site936] | 8.13 ± 0.75 |
| ATTTATATTATAATATGTACACAAAAAAAATTAGGA [XGTACX_site565] | 8.32 ± 0.2 |
| ACCATACATACATACACACACACACCCATATATATA [CACACA_site2917] | 8.72 ± 0.42 |
| TTTCATGTTTTAAAGTGTACATAAATATATTATATG [XGTACX_site3367] | 7.91 ± 0.51 |
| TTGTTAGAGTATATTGAAAGGATAACCTTTTTTTAT [XGTACX_negctrl_site122] | 7.43 ± 0.75 |
| TTTTTAATAAAATGATTGATAATTATTAAATTAAAA [CACACA_negctrl_site488] | 7.17 ± 0.39 |
| TTGTGTTTGCGTAAATGTACGGAAAGACTTGAAGAC [XGTACX_site7235] | 8.41 ± 0.61 |
| AGCCATTATAATTCTTGTACATAATATAGCTATTTT [XGTACX_site1723] | 7.92 ± 0.61 |
| GAGCACCAAAATATATGTACATATGATAAATGTGAA [XGTACX_site1130] | 7.94 ± 0.62 |
| ACATATATATAATATATATTTTTCGTGTGGTGTCAC [CACACA_negctrl_site543] | 7.76 ± 0.38 |
| TCACTTTTATAATATAATATTCTATATCTTATTTTT [GTGCAC_negctrl_site717] | 7.47 ± 0.47 |
| TTTTTTATTTTATTTTTTTCTGCTTATCCACATTAG [XGTACX_negctrl_site108] | 7.75 ± 0.41 |
| ATCATTGAAGTTAAAAATATAAAGTATTCAGAAGGG [XGTACX_negctrl_site560] | 7.78 ± 0.52 |
| AATATATATATAGGATGTACACATAATTCAAATATA [XGTACX_site2755] | 7.83 ± 0.35 |
| TTGTGAATAACTAAGAAGAAAAAGATAAATATGTAT [TGCATGCA_negctrl_site388] | 7.98 ± 0.83 |
| TATTCATGCATATACACACACATATATTTATATTTT [CACACA_site7786] | 8.37 ± 0.52 |
| AATAATATTGAAATGTGTACGTATTTATATTTTATG [XGTACX_site8252] | 7.83 ± 0.27 |
| TTTTTCTTTTTTACAGTGCATAAATATATGTATTGT [GTGCAC_site9399] | 10.4 ± 0.45 |
| TTTTGTTATATTCAATATTTATATATTATAAATATA [CACACA_negctrl_site1705] | 7.75 ± 0.49 |

| Sequence | gcPBM binding intensity (ln) |
| --- | --- |
| TAGATACATACACGCACACACATATATAAATAAATA [CACACA_site6157] | 8.38 ± 0.085 |
| AAAAAAAACAGACACACACACATACACATACATACA [CACACA_site2857] | 8.04 ± 0.3 |
| TAATTATGTACTATTATACACACGTTTAATTGTAAA [CACACA_site206] | 7.89 ± 0.25 |
| AATAATATATGGTGTACACAAAAGTATAAATAATTT [CACACA_site5338] | 8.72 ± 0.6 |
| TATAAAAAAATAATAAATAAATAAAAAGATTTCTTT [TGCATGCA_negctrl_site122] | 7.2 ± 0.63 |
| TAGATACAGAAACACACACACACATACATATATACA [CACACA_site3437] | 7.8 ± 0.38 |
| TTATGGAGAGTTATATGTACGAAAAATATGTATAAG [XGTACX_site515] | 8.03 ± 0.61 |
| AGAATTATTGTTAATGCATGTGGAAGTTAAAATATT [TGCATGCA_site188] | 8.48 ± 0.69 |
| TATTTAAATTGTAAGTGTACATATATAAATGTAAAA [XGTACX_site1609] | 7.99 ± 0.2 |
| TATATAGTAATTTATTCACACAATTGGCACACCTCA [CACACA_site4679] | 8.17 ± 0.47 |
| TATAATATATATTTGTGTCCACAACATTTTTAATAT [XGTACX_site2089] | 7.91 ± 0.33 |
| TTTTTTTATTAAAAATGTACAAAAATGAAAAAATAA [XGTACX_site8279] | 8.15 ± 0.3 |
| CATATAATTTTATGGGTGCATTTTTTTGTAAGACCA | 10.1 ± 0.58 |
| ATTTAATTTTTTTTTTTTTTTTTTCAATCCCCTTTT [CACACA_negctrl_site1013] | 7.42 ± 0.54 |
| TTTTAAACAAAAATTTGTACACAATAATTAAATATA [XGTACX_site6755] | 7.79 ± 0.32 |
| CATTTTAAAGAAAATACACACAAAAATAAATATATA [CACACA_site1395] | 7.59 ± 0.53 |
| TAATAATAAATTGGTTGTACAACCTTATACAGAATA [XGTACX_site2592] | 7.76 ± 0.39 |
| ACACAAAAAATAAAAATATATATATATTATATATAT [CACACA_negctrl_site1489] | 8.3 ± 0.3 |
